Test results from PubChem BioAssay AID1468 (National Center for Advancing Translational Sciences (NCATS), 2008).
The whole screen tested about 280,000 compounds, of which about 1,100 (0.39%) were called active. Inconclusive results, whose numbers are uncertain, are shown with a selection of clear calls. Calls come from the whole dose curve; as a rule, active = well fitted inhibition curve with a large enough effect; inconclusive = small, poorly fitted or top-dose-only effect, or effect the other way; inactive = flat fitted curve, though single readings scatter. No potency is given beside an inconclusive call; the fits are too rough.

Molecular target: Microtubule-associated protein tau (Homo sapiens) (UniProt P10636)
Test: qHTS for Inhibitors of Tau Fibril Formation, Fluorescence Polarization; note: nearly all actives have a fitted effect of over 55% in size
Settings: K18 P301L tau heparin fibrillization, Alexa594 FP, 6 h; series mostly up to 57.7 µM; activity, negative = inhibition: at the top concentration
Description: NIH Molecular Libraries Probe Production Network [MLPCN]
NIH Chemical Genomics Center [NCGC]
Assay Provider: Carlo Ballatore, University of Pennsylvania
The microtubule-associated protein tau is an abundant protein in the axons of neurons that stabilizes microtubules. With its ability to modulate microtubule dynamics, tau contributes directly or indirectly, to key structural and regulatory cellular functions. Particularly important is the influence tau exerts on axonal transport, which allows signaling molecules, trophic factors and other essential cellular constituents to travel along the axons. Under pathological conditions, tau becomes sequestered into insoluble aggregates called neurofibrillary tangles. This phenomenon is believed to have pathological consequences by promoting axonal transport deficits that ultimately lead to synaptic dysfunction and neuronal loss. To identify inhibitors of tau aggregation, a heparin-induced tau fibril formation assay was used that employed a recombinantly expressed fragment of tau, K18 (Q242-E372), bearing a P301L mutation (Gustke et al. 1994; Hong et al. 1998).
Gustke, N., B. Trinczek, et al. (1994). "Domains of tau protein and interactions with microtubules." Biochemistry 33(32): 9511-22.
Hong, M., V. Zhukareva, et al. (1998).
Li, W. and V. M. Lee (2006). "Characterization of two VQIXXK motifs for tau fibrillization in vitro." Biochemistry 45(51): 15692-701.
von Bergen, M., S. Barghorn, et al. (2001). "Mutations of tau protein in frontotemporal dementia promote aggregation of paired helical filaments by enhancing local beta-structure." J Biol Chem 276(51): 48165-74.
NCGC Assay Protocol Summary:
For screening, 2 uL/well human K18 P301L (15 uM unlabeled and 0.24 uM Alexa 594-labeled tau final concentrations) in reagent buffer (100 mM sodium acetate pH 7) was dispensed into black solid 1536-well plates (Grenier) using a solenoid-based dispenser. Following transfer of 23 nL compound or DMSO vehicle by a pin tool, 2 uL/well heparin (20 uM final concentration) in reagent buffer was added and the plate centrifuged 15 s at 1000 RPM. Plates were incubated 6 hr at 37 C and then 1 uL/well ThT (30 uM final concentration) was added. After a 1 hr ambient incubation, the plates were read by an Envision (Perkin Elmer) to monitor Alexa 594 FP (555 nm excitation and 632 nm emission).
Keywords: NIH Roadmap, MLPCN, MLI, MLSMR, NCGC, qHTS, tau, tauopathies, Alzheimer's disease, fibril, neurodegeneration, aggregation
% is set by controls: 0 for no effect and ±100 for the full control effect; potency is the fitted concentration of half-maximal effect; tags give direction and shape of the fitted curve.

UniProt P10636, sequence (P10636 whole entry, looked up): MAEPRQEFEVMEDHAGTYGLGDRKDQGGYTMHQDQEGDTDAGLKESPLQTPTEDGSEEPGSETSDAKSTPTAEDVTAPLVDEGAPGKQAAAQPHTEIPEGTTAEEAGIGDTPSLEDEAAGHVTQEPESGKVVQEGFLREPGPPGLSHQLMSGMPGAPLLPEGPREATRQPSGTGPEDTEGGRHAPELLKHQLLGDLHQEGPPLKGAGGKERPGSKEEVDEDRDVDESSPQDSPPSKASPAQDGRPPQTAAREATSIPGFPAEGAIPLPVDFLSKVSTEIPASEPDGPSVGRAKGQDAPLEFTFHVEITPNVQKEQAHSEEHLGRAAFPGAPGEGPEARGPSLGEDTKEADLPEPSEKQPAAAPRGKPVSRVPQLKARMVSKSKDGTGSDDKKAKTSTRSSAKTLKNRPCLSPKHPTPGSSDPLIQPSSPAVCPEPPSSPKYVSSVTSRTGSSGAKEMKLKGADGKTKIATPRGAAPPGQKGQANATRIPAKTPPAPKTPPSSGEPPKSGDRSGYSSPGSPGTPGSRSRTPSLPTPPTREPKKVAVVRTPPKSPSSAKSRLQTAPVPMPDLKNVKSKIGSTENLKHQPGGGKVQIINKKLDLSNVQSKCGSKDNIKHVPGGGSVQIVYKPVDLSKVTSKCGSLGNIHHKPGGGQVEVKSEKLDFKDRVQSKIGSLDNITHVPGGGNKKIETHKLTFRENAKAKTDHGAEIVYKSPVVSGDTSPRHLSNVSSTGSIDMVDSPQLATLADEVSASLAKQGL

For `CCOc1cc(NC(=O)c2ccccn2)c(OCC)cc1NC(=O)c1ccc(OC)cc1`, which Potency is on record?
Its Potency is inconclusive [activator, partial curve, poor fit].

Which Potency does the source give for `Cn1c(=S)n(/N=C/c2cccs2)c2ccccc21` here?
Its Potency is inconclusive [inhibitor, single point].

For `O=C(CN1C(=O)C2CC=CCC2C1=O)NCC1COc2ccccc2O1` (stereo not drawn), which Potency is on record?
Its Potency is inconclusive [inhibitor, single point].

How did the Potency turn out when `COc1cc(C=O)ccc1OCc1ccccc1Br` was run?
Its Potency is inconclusive [inhibitor, partial curve, poor fit].

For `Cc1cccc(C)c1NC(=S)N(Cc1cccnc1)Cc1ccccc1Cl`, which Potency is on record?
The Potency was inconclusive [inhibitor, full curve, poor fit].

How did the Potency turn out when `COC(=O)c1ccc(NC(=O)CN2C(=O)CCc3cc(S(=O)(=O)N4CCCCC4)ccc32)cc1` was run?
The Potency was inconclusive [inhibitor, single point].

With `COc1cccc(/C=N/NC(=O)c2[nH]c(C)c(C(=O)N/N=C/c3cccc(OC)c3)c2C)c1` as the compound, how does the Potency read?
Its Potency is inconclusive [inhibitor, single point].

Which “activity, negative = inhibition” value does the source give for `O=C(c1ccco1)N1CCN(C(=O)c2cccc3c2C(=O)N(C2CCCCC2)C3)CC1` here?
The value was inactive: -4.33%.

For `Cc1nc(-n2nnc3ccccc32)c2c3c(sc2n1)CCCC3`, which Potency is on record?
The Potency was inconclusive [inhibitor, partial curve].

Which Potency does the source give for `CCC1c2ccc(C)n2CCN1C(=O)Nc1ccccc1C(=O)OC` (stereo not drawn) here?
The Potency was inconclusive [inhibitor, single point].

With `Cc1[nH]c(=O)[nH]c(=O)c1S(=O)(=O)N1CCN(c2ccccc2Cl)CC1` as the compound, how does the Potency read?
Its Potency is inconclusive [inhibitor, single point].

With `COC(=O)C1=C(C)NC(=O)C1(NC(=O)c1cc(OC)c(OC)c(OC)c1)C(F)(F)F` (stereo not drawn) as the compound, how does the “activity, negative = inhibition” value read?
The value was inactive: 1.54%.

For `Cc1cc(C)nc(NC(=NCCc2c[nH]c3ccc(Cl)cc23)NC(=O)c2ccccc2C)n1`, which Potency is on record?
Its Potency is inconclusive [inhibitor, single point].

Which Potency does the source give for `O=C(Cn1cnc2ccccc2c1=O)NCC1COc2ccccc2O1` (stereo not drawn) here?
The Potency was inconclusive [inhibitor, partial curve, poor fit].

How did the Potency turn out when `CCOC(=O)c1ccc(N2C(=O)c3n[nH]c(-c4ccco4)c3C2c2ccc(O)c(OCC)c2)cc1` (stereo not drawn) was run?
Its Potency is inconclusive [inhibitor, full curve].

`COc1ccc(NS(=O)(=O)c2cccc(C(=O)N/N=C/c3cn(-c4ccccc4)nc3-c3ccc(OC)cc3)c2)cc1` was tested. Which Potency did it give?
Its Potency is active: 31.6 µM.

How did the Potency turn out when `Oc1ccc(N=Nc2ccc3c(c2)OCCO3)c2cccnc12` was run?
The Potency was inconclusive [activator, partial curve].

`COC(=O)c1ccc(NC(=O)CSCc2ccccc2C)cc1` was tested. Which Potency did it give?
Its Potency is inconclusive [inhibitor, partial curve].

How did the Potency turn out when `COc1ccc(C(=O)N/N=C(\C)CC(=O)N2CCN(C=O)CC2)cc1` was run?
The Potency was inconclusive [inhibitor, full curve].

`CC(=O)Nc1nc2n(n1)C(c1ccc(F)cc1)C=C(c1ccccc1)N2` (stereo not drawn) was tested. Which “activity, negative = inhibition” value did it give?
Its value is inactive: -12.2%.

With `OB(O)c1csc2ccccc12` as the compound, how does the Potency read?
The Potency was inconclusive [inhibitor, single point].

With `O=C1c2ccccc2C(=O)N1OS(=O)(=O)c1ccccc1` as the compound, how does the Potency read?
The Potency was inconclusive [inhibitor, partial curve].

`O=S(=O)(c1ccc2nc(-c3ccco3)c(-c3ccco3)nc2c1)N1CCOCC1` was tested. Which Potency did it give?
The Potency was active: 8.91 µM.

`Cn1nnnc1SCCCNCc1ccc(-c2ccc(F)c(Cl)c2)o1` was tested. Which “activity, negative = inhibition” value did it give?
Its value is inactive: -4.72%.

With `CC(C)(C)NCC(O)COc1ccccc1C(C)(C)C` (stereo not drawn) as the compound, how does the Potency read?
Its Potency is inconclusive [inhibitor, single point].

How did the Potency turn out when `O=C(Nc1ccc2nn(-c3ccccc3)nc2c1)c1cccs1` was run?
The Potency was inconclusive [inhibitor, partial curve].

`CC(C)(C)c1cnnn1-c1ccc(/C=N/Nc2ccc([N+](=O)[O-])cc2)cc1` was tested. Which Potency did it give?
The Potency was inconclusive [inhibitor, single point].

How did the “activity, negative = inhibition” value turn out when `Cc1ccc(S(=O)(=O)Nc2cc3c(cc2C)n(C)c(=O)c(=O)n3C)c(C)c1` was run?
Its value is inactive: 0.0443%.

How did the Potency turn out when `CCOC(=O)c1sc(-c2ccccc2)cc1NC(=O)Nc1ccccc1` was run?
Its Potency is inconclusive [inhibitor, full curve].

With `O=S(=O)(/N=C(/Sc1ccccc1)c1ccccc1)c1ccccc1` as the compound, how does the Potency read?
The Potency was inconclusive [inhibitor, single point].

For `O=C(COC(=O)c1cccc(NC(=O)c2ccco2)c1)c1ccc(Br)cc1`, which Potency is on record?
Its Potency is inconclusive [inhibitor, partial curve].

Which “activity, negative = inhibition” value does the source give for `c1ccc(-c2cnc(CSc3ncnc4sccc34)o2)cc1` here?
Its value is inactive: 7.29%.

For `CC(=O)c1ccc(NC(=O)Nc2ccc(Br)cc2C)cc1`, which Potency is on record?
Its Potency is inconclusive [inhibitor, single point].

With `O=C(COc1ccc2ccccc2c1)Nc1ccncc1` as the compound, how does the “activity, negative = inhibition” value read?
Its value is inactive: -12.2%.

How did the Potency turn out when `N#Cc1cnc2c(-c3ccccc3)c(-c3ccccc3)nn2c1N` was run?
Its Potency is inconclusive [inhibitor, partial curve].

How did the Potency turn out when `CCOC(=O)N1C/C(=C\c2ccccc2)C(=O)/C(=C/c2ccccc2)C1` was run?
The Potency was inconclusive [inhibitor, partial curve].

`CCOc1ccc(N2CC(O)Cn3c2nc2c3c(=O)n(CCCc3ccccc3)c(=O)n2C)cc1` (stereo not drawn) was tested. Which Potency did it give?
Its Potency is inconclusive [activator, partial curve].

`O=C(COC(=O)c1ccc(S(=O)(=O)N2CCOCC2)cc1)Nc1nc(-c2ccccc2)cs1` was tested. Which Potency did it give?
Its Potency is inconclusive [inhibitor, partial curve].

Which Potency does the source give for `Cn1c(=O)cc2c3c(c(N4CCCCC4)ccc31)C(=O)c1ccccc1-2` here?
Its Potency is inconclusive [inhibitor, single point].

`COc1ccc(NC(=O)C(c2cc3c(cc2[N+](=O)[O-])OCO3)N(C)c2ccccc2)cc1` (stereo not drawn) was tested. Which Potency did it give?
The Potency was inconclusive [activator, single point].

`CCOc1cc(/C=C2/NC(=O)N(CC(=O)Nc3cccc(C)c3)C2=O)ccc1OCC(N)=O` was tested. Which Potency did it give?
The Potency was inconclusive [inhibitor, single point].

Which Potency does the source give for `Cc1cccc(N2CCN(S(=O)(=O)c3ccc(-c4cc(C(F)(F)F)on4)s3)CC2)c1C` here?
The Potency was inconclusive [inhibitor, partial curve].

`COc1ccc(Cl)cc1NC(=O)c1nnn(Cc2cccc(C(F)(F)F)c2)c1N` was tested. Which Potency did it give?
Its Potency is inconclusive [inhibitor, partial curve].

Which Potency does the source give for `Cc1ccc(-c2onc3ccc(C=O)cc23)cc1` here?
Its Potency is inconclusive [inhibitor, partial curve].

`CCN1CCN(c2nc(Nc3ccc(C)c(C)c3)nc(N)c2[N+](=O)[O-])CC1` was tested. Which Potency did it give?
The Potency was inconclusive [activator, partial curve, poor fit].

Which Potency does the source give for `COc1cc(/C=N/NC(=O)C(=O)/C=C2\NC(C)(C)Cc3ccccc32)ccc1O` here?
Its Potency is inconclusive [activator, single point].

For `COc1cccc(C2C(C(=O)Nc3ccc(Cl)cc3)=C(C)Nc3nc4ccccc4n32)c1` (stereo not drawn), which Potency is on record?
Its Potency is inconclusive [activator, partial curve].

`COc1ccc(O[C@H]2C=C[C@@H](c3ccccc3)O[C@H]2COC(=O)NCc2cccc3ccccc23)cc1` was tested. Which Potency did it give?
The Potency was inconclusive [activator, full curve, poor fit].

How did the Potency turn out when `COc1cccc(CC(=O)Nc2ccc(-c3nc4ccccc4s3)cc2)c1` was run?
Its Potency is inconclusive [inhibitor, partial curve, poor fit].

How did the Potency turn out when `CN(C)c1ccc(N=Cc2ccco2)cc1` was run?
The Potency was inconclusive [inhibitor, single point].

With `COc1ccccc1NC(=O)NC(=O)N(C(C)C)S(C)(=O)=O` as the compound, how does the Potency read?
Its Potency is inconclusive [inhibitor, single point].

`Cc1ccc(C(=O)OCC(=O)NCc2ccco2)s1` was tested. Which “activity, negative = inhibition” value did it give?
Its value is inactive: 4.11%.

Which Potency does the source give for `COc1ccc(-c2nc(C#N)c(N3CC(C)OC(C)C3)o2)cc1OC` (stereo not drawn) here?
Its Potency is inconclusive [inhibitor, full curve, poor fit].

How did the Potency turn out when `Cn1c(=O)c2c(nc(NN=C3CCCCC3)n2C)n(C)c1=O` was run?
Its Potency is inconclusive [inhibitor, partial curve].

For `CN1/C(=C/C=C(C#N)C#N)C(C)(C)c2ccccc21`, which Potency is on record?
The Potency was inconclusive [inhibitor, single point].

For `O=C(Cn1cnc2c(oc3ccccc32)c1=O)Nc1ccc(OC(F)(F)F)cc1`, which Potency is on record?
Its Potency is inconclusive [inhibitor, partial curve, poor fit].

Which Potency does the source give for `Cc1[nH]n(-c2ccccc2)c(=O)c1/C=N/NC(=O)c1ccoc1C` here?
Its Potency is inconclusive [activator, single point].

Which Potency does the source give for `FC(F)(F)c1ccccc1-c1nc(Nc2ccncc2)c2ccccc2n1` here?
The Potency was inconclusive [inhibitor, partial curve].

For `CCNC(=S)NNC(=O)c1cc(-c2cccc(C)c2)nc2ccccc12`, which Potency is on record?
Its Potency is inconclusive [activator, single point].

For `O=C(COC(=O)c1ccc(S(=O)(=O)N2CCCCC2)cc1)NCc1ccco1`, which “activity, negative = inhibition” value is on record?
The value was inactive: -2.93%.

For `COc1ccc(O)c(C(=O)c2cc(C#N)c(=O)n(Cc3ccccc3)c2)c1`, which Potency is on record?
The Potency was inconclusive [inhibitor, single point].

`COc1cc2[nH]c(=O)n(Cc3ccc(C(=O)N4CCN(c5cc(Cl)ccc5C)CC4)cc3)c(=O)c2cc1OC` was tested. Which Potency did it give?
The Potency was inconclusive [inhibitor, partial curve].

With `COc1ccc(N(C(=O)c2cccc(C)c2)S(=O)(=O)c2ccc(C)cc2)cc1` as the compound, how does the “activity, negative = inhibition” value read?
The value was inactive: 0.162%.
